Laboratory results: the supplement of paper PMC3334620
The full ranking holds about 33,000 sequences; the median of “E-score (-0.5 to 0.5)” is about -0.054, and the highest 2% start at about 0.35. The list shows a part of the results.

These sequences were tested against T1, Stb5 (UniProt P38699) (assay: PBM E-score (8-mer binding enrichment) (E-score (-0.5 to 0.5)); higher = stronger / more preferred TF binding; most listed sequences are background and not binding sites). Settings: protein concentration: 200 nM; construct: GST-full length.
T1 sequence: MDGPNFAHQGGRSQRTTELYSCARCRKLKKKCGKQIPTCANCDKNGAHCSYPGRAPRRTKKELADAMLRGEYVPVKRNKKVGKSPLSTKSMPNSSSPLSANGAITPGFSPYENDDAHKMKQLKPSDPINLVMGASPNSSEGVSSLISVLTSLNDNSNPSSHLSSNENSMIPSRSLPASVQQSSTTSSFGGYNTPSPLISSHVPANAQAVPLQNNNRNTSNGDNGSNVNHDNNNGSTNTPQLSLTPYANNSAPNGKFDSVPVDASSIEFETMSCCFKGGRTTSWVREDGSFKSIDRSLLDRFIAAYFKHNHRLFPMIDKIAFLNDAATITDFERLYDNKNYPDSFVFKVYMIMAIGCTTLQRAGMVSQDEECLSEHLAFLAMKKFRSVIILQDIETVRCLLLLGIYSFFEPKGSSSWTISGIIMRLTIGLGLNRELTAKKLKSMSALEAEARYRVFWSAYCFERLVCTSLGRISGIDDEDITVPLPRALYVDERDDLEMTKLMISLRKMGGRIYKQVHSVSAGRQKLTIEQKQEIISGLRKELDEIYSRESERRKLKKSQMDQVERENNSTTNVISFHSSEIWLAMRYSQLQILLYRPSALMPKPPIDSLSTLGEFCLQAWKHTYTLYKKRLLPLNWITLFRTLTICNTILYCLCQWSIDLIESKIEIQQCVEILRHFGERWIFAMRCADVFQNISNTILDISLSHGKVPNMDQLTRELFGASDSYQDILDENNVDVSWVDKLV
In short: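 Universal all-10-mer Agilent arrays, double-stranded by primer extension on fresh or once-stripped slides, were probed with about 100-200 nM GST-tagged yeast transcription factors made by PURExpress. Fluorescent anti-GST detected bound protein, and masliner normalised the scans. E-scores from the Universal PBM Analysis Suite were given to each ungapped eight-base word pooled with its reverse complement.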

Sequence	PBM E-score
CGAGTGAC	-0.179
AACGGTAT	0.265
CGCGGATC	0.15
CGCACAGC	0.189
GCCCCTCC	-0.1
AATGGGTA	-0.153
AGGACTTA	0.274
CCTGCATA	-0.02
CCCAGTAC	-0.268
AGTTCCCC	0.16
AAAGCATC	-0.111
TACTCGAA	-0.128
AAGTAAGG	0.0143
GTGATCAC	0.235
ATGGGGAA	-0.0244
AATCGACC	0.093
AAGGGGGC	-0.164
AGTGAAGC	-0.024
GGTAAACA	0.0405
AAATCTGG	-0.00908
AGCTGAAC	-0.245
GCTTCGAA	-0.0877
ATATGTGG	-0.101
CTGCGCGA	0.051
AGACAACT	-0.137

Sequence	PBM E-score
GCCTTTAA	0.0295
AATTCGGC	-0.0188
CGTCATAC	0.155
GAGAGAGA	-0.0152
CGGGTTAC	0.0485
ACTTTGCT	-0.119
GCGGATTA	0.114
GCTGCAGC	0.228
TAAGGTAA	-0.0431
ATCATTCA	-0.198
CGATTAGC	-0.0718
AACGGATC	0.16
CGCTAGAG	0.0369
CTTCAGGC	-0.0204
GTGTAAGA	-0.104
ACCCCTTA	0.0174
GGAACGAA	-0.0229
CTAGAGAG	-0.146
CTACCGTC	0.177
GAGGTGTA	-0.0897
CAAGGGTG	-0.151
ACCGAGCC	0.0685
CCAATCGG	0.212
TACTAGGA	-0.0753
AGGACACT	-0.138

Sequence	PBM E-score
GACGAGAA	-0.22
GGCGCACA	0.034
AGAAAAGC	-0.0667
CGTAAAGC	0.0857
TAATATCA	0.172
ATCTTACA	-0.033
TTGGGAAA	-0.293
CTCATCCA	-0.265
CCCGGTAG	0.211
AGATGCGC	0.0212
ACAGTAGC	-0.159
GATTGCAA	-0.214
ACTATAAC	0.135
CGAACTAC	0.00666
AGAGGTCC	-0.0788
CTGAGAGC	-0.047
ACGTAGAC	-0.251
GCCGACGA	0.308
CGATTCGC	0.0218
CCGCATAA	0.251
CCAAGAAG	-0.144
CTTTCGTC	-0.0669
AAATCTTA	-0.119
CTGACATA	-0.0884
ACTATTCG	-0.238

Sequence	PBM E-score
CGGCCGTC	0.11
CATCCGAA	0.168
AGGCGGCG	0.335
CACTGCCC	-0.0546
AAAGCGGA	0.352
CATGGAGC	-0.0701
GCCGTATA	0.173
GCACCTCC	-0.0633
CTTGGAGC	-0.224
CGTTAAAA	0.19
CGGGTAAG	-0.0392
ACTATCCC	0.0306
GGAACACA	-0.0998
ACCCCCGG	0.336
AAGAGCGC	0.141
AAAGGTCA	-0.202
ATGTTGCA	-0.271
GTGCCACA	-0.302
TACCATAA	-0.0349
AGCGACGA	-0.0697
GGGACGAC	-0.115
TACAATAA	-0.11
GCCCAATA	-0.139
ATTGTCAC	0.0341
AGAGACCG	0.278

Sequence	PBM E-score
CCTAACCA	-0.181
TCACCAGA	0.0164
GGGTAGCA	-0.072
CCCCGCTA	0.399
GGTCGTTA	0.0818
ACACCACC	0.0187
GGCTTCTA	-0.04
ATTCTGTG	-0.0797
GCCATTCC	-0.0807
TAACATAA	0.0517
GACCGCTA	0.359
GAATGCTA	-0.0445
CCTTCATC	-0.0101
GGTATAAA	0.305
AGGGAAAT	-0.0743
CGGCAACC	0.066
CAGTCTAC	-0.135
ACTACTTC	0.0827
TGCTCTAA	0.011
CGCTATGC	0.143
GATATATA	0.225
AGGCGCAG	-0.219
CAAAACCG	0.0999
GATCGAGA	-0.15
AAGCGAGG	0.0396

Sequence	PBM E-score
ATGCAGCC	-0.0789
AGACAGAG	-0.213
CGGAATGA	0.129
CGACACAC	0.149
ATTGCGCA	-0.0464
ATTGGTTC	-0.144
ATACGGTC	0.104
GGACTCGA	-0.0833
CGAAGCTC	-0.0575
TACCACGA	-0.267
CTAACCGA	-0.0425
CTCTCTGA	-0.0662
CATTGTTA	-0.0971
CGCATGGA	-0.0138
CATTATGG	0.0487
CCTTCGCG	0.0192
ATCTTGTC	-0.0534
CATTCCAG	-0.211
GGAACCCA	-0.0641
AGTGTGGC	-0.0199
ATGTGGCC	-0.0147
ATGGCCGG	0.208
CCCGCTCA	0.295
AGAAGGAG	-0.182
AACGCCAA	-0.0257

Sequence	PBM E-score
GAGTGATA	-0.0804
GACTGGCA	-0.0783
CAATTGGG	-0.198
AGCAATCG	-0.18
CTGGGCGC	-0.0614
AGGATTGA	-0.149
AGAACCAA	-0.313
ACCCAATC	-0.12
CGGTTGTC	0.155
GCGACTAA	-0.0162
ATATCTAC	0.0264
GCCTGTAA	-0.0959
ATCTTCCA	-0.158
AGTTATAG	-0.00158
ATTACCTA	0.0568
CCCAGGCC	-0.116
AGCTCGAC	-0.273
CGGGTAGC	-0.0545
ATATAGCC	0.285
CTTGGCAC	-0.106
GCCAGAAC	-0.192
ACGTTTGA	-0.127
